Measurements: PMC7188947
These are yes or no findings as the source states them, for the method shown. Binding seen in cells or lysates may run through a third protein. Some entries that bind do so weakly or less than the wild type.

By UniProt entry, the sequences of proteins in these tests, tags left out. Where a name states a change or a piece, a line headed by the entry shows the natural chain unless it says otherwise.
UniProt Q05655: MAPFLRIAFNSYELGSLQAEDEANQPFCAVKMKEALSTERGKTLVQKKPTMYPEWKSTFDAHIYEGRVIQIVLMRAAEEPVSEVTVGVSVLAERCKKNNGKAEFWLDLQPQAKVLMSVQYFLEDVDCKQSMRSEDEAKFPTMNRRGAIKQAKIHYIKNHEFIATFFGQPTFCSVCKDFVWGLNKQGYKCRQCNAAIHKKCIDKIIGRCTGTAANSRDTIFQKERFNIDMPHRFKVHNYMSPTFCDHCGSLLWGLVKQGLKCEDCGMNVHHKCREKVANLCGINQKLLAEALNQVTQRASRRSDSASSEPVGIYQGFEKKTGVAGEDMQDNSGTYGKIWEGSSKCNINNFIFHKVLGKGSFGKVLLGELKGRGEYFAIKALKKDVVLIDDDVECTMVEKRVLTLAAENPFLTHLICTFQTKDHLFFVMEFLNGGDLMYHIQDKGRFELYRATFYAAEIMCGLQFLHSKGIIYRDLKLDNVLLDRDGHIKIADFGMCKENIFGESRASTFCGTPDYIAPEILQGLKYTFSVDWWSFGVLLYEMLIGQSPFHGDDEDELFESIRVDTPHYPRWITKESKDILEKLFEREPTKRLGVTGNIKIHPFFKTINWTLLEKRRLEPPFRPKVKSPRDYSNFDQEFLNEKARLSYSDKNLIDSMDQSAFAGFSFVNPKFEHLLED
UniProt P28867: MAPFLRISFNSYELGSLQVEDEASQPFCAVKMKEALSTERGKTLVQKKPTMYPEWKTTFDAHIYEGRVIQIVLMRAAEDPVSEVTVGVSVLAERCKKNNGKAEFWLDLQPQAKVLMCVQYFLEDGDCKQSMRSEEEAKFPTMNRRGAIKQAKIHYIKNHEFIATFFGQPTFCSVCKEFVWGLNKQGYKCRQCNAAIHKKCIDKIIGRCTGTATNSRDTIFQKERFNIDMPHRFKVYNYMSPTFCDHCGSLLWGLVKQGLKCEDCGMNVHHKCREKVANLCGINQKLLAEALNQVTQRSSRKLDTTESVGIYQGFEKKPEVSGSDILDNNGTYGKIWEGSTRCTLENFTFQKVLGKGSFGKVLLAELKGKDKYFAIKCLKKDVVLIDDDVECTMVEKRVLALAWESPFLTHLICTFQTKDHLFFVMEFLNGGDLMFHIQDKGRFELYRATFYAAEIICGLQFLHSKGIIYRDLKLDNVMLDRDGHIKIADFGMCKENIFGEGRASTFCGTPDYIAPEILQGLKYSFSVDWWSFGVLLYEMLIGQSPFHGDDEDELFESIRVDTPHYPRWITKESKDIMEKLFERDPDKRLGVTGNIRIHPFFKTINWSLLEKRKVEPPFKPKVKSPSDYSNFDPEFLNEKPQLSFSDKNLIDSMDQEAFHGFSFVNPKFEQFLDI

Assays:
[1] = target: Flag-PKCδ (human protein kinase C delta fused with Flag tag) (human) (UniProt Q05655); assay: co-IP; HEK-293T cells transfected with Flag-PKCδ and Myc-A20 or A20 truncates; RIPA lysate, pre-cleared, antibody 5 h at 4°C, protein G agarose overnight; anti-Flag antibody for the precipitation (Figure 6C); Western blot
[2] = target: endogenous PKCδ (mouse macrophages) (mouse (endogenous in Raw264.7 and BMDM)) (UniProt P28867); assay: co-IP; Raw264.7 cells treated with poly(I:C) or PBS for 2 h; lysate immunoprecipitated with anti-PKCδ antibody; endogenous proteins; Western blot
[3] = target: endogenous PKCδ (mouse macrophages) (mouse (endogenous in Raw264.7 and BMDM)) (UniProt P28867); assay: co-IP; BMDM cells treated with poly(I:C) or PBS for 2 h; lysate immunoprecipitated with anti-PKCδ antibody; endogenous proteins; Western blot

Row | Binder | binding [1] | binding [2] | binding [3]
1 | A20-2 (384-790aa), truncated region of human A20 including the Zn fingers domain (domain or fragment, UniProt P21580 384-790) DVKCETPNCPFFMSVNTQPLCHECSERRQKNQNKLPKLNSKPGPEGLPGMALGASRGEAYEPLAWNPEESTGGPHSAPPTAPSPFLFSETTAMKCRSPGCPFTLNVQHNGFCERCHNARQLHASHAPDHTRHLDPGKCQACLQDVTRTFNGICSTCFKRTTAEASSSLSTSLPPSCHQRSKSDPSRLVRSPSPHSCHRAGNDAPAGCLSQAARTPGDRTGTSKCRKAGCVYFGTPENKGFCTLCFIEYRENKHFAAASGKVSPTASRFQNTIPCLGRECGTLGSTMFEGYCQKCFIEAQNQRFHEAKRTEEQLRSSQRRDVPRTTQSTSRPKCARASCKNILACRSEELCMECQHPNQRMGPGAHRGEPAPEDPPKQRCRAPACDHFGNAKCNGYCNECFQFKQMYG | binds | – | –
2 | A20-1 (1-383aa), truncated region of human A20 including the OTU domain (domain or fragment, UniProt P21580 1-383) MAEQVLPQALYLSNMRKAVKIRERTPEDIFKPTNGIIHHFKTMHRYTLEMFRTCQFCPQFREIIHKALIDRNIQATLESQKKLNWCREVRKLVALKTNGDGNCLMHATSQYMWGVQDTDLVLRKALFSTLKETDTRNFKFRWQLESLKSQEFVETGLCYDTRNWNDEWDNLIKMASTDTPMARSGLQYNSLEEIHIFVLCNILRRPIIVISDKMLRSLESGSNFAPLKVGGIYLPLHWPAQECYRYPIVLGYDSHHFVPLVTLKDSGPEIRAVPLVNRDRGRFEDLKVHFLTDPENEMKEKLLKEYLMVIEIPVQGWDHGTTHLINAAKLDEANLPKEINLVDDYFELVQHEYKKWQENSEQGRREGHAQNPMEPSVPQLSLM | no binding | – | –
3 | A20-3 (258-491aa), truncated region of human A20 overlapping A20-1 and A20-2 (domain or fragment, UniProt P21580 258-491) VPLVTLKDSGPEIRAVPLVNRDRGRFEDLKVHFLTDPENEMKEKLLKEYLMVIEIPVQGWDHGTTHLINAAKLDEANLPKEINLVDDYFELVQHEYKKWQENSEQGRREGHAQNPMEPSVPQLSLMDVKCETPNCPFFMSVNTQPLCHECSERRQKNQNKLPKLNSKPGPEGLPGMALGASRGEAYEPLAWNPEESTGGPHSAPPTAPSPFLFSETTAMKCRSPGCPFTLNVQH | no binding | – | –
4 | endogenous A20 (mouse macrophages) (enzyme, UniProt Q60769 1-775) MAEQLLPQALYLSNMRKAVKIRERTPEDIFKPTNGIIYHFKTMHRYTLEMFRTCQFCPQFREIIHKALIDRSVQASLESQKKLNWCREVRKLVALKTNGDGNCLMHAACQYMWGVQDTDLVLRKALCSTLKETDTRNFKFRWQLESLKSQEFVETGLCYDTRNWNDEWDNLVKMASADTPAARSGLQYNSLEEIHIFVLSNILRRPIIVISDKMLRSLESGSNFAPLKVGGIYLPLHWPAQECYRYPIVLGYDSQHFVPLVTLKDSGPELRAVPLVNRDRGRFEDLKVHFLTDPENEMKEKLLKEYLIVMEIPVQGWDHGTTHLINAAKLDEANLPKEINLVDDYFELVQHEYKKWQENSDQARRAAHAQNPLEPSTPQLSLMDIKCETPNCPFFMSVNTQPLCHECSERRQKNQSKLPKLNSKLGPEGLPGVGLGSSNWSPEETAGGPHSAPPTAPSLFLFSETTAMKCRSPGCPFTLNVQHNGFCERCHARQINASHTADPGKCQACLQDVTRTFNGICSTCFKRTTAEPSSSLTSSIPASCHQRSKSDPSQLIQSLTPHSCHRTGNVSPSGCLSQAARTPGDRAGTSKCRKAGCMYFGTPENKGFCTLCFIEYRENKQSVTASEKAGSPAPRFQNNVPCLGRECGTLGSTMFEGYCQKCFIEAQNQRFHEARRTEEQLRSSQHRDMPRTTQVASRLKCARASCKNILACRSEELCMECQHLSQRVGSVAHRGEPTPEEPPKQRCRAPACDHFGNAKCNGYCNECYQFKQMYG | – | binds | binds
